# Some of the results follow. Shown are side measurements of this screen, not its main read-out; they come without a call. Compounds called inactive in the main read-out are mostly missing here.
# Assay: oleate-induced lipid droplet accumulation in AML12 cells – imaging, high-throughput imaging, BODIPY stain, primary screen (AID 1656);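 further: cells counted across two imaged fields per well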
# Conditions: AML12 mouse hepatocytes, oleate lipid droplets, measured here: cell count, cytotoxicity flag, at 6.5 µM
# In short: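 Test system: AML12 mouse liver cells; schedule: overnight exposure; technique: high-content imaging of BODIPY-stained droplets and DAPI nuclei; read-out: % inhibition of corrected integrated BODIPY droplet signal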
row,Structure (SMILES),cell count
1,CCOc1ccc(CCNC(=O)Nc2cccc(OC)c2)cc1OCC,805 cells
2,Cc1cc(NC(=O)CSc2nc(-c3ccco3)cc(C(F)(F)F)n2)no1,221 cells
3,COc1ccc(S(=O)(=O)N(c2onc(C)c2Cl)S(=O)(=O)c2ccc(OC)cc2)cc1,574 cells
4,COc1ccc(-n2c(=O)c3c4c(sc3n(CC(=O)Nc3cc(C)[nH]n3)c2=O)CCC4)c(OC)c1,736 cells
5,CCOc1cc2[nH]c(=O)n(CCCC(=O)N(C)Cc3ccccc3)c(=O)c2cc1OCC,697 cells
6,CCOc1ccc(CCNC(=O)COC(=O)c2cc([N+](=O)[O-])ccc2N2CCOCC2)cc1OCC,827 cells
7,CC1(C)OC(c2ccccc2)=C/C(=C/C=C2C(=O)c3ccccc3C2=O)O1,757 cells
8,CCOC(=O)Nc1sc(=S)n(C)c1C,82 cells
9,COc1cc(NC(=O)c2ccco2)c(OC)cc1NC(=O)CCC(=O)Nc1cc(C)cc(C)c1,701 cells
10,Cn1ccsc1=NC(=O)c1ccc(CS(C)(=O)=O)cc1,172 cells
11,Oc1ccc(C2=NNC(=NCc3ccc4c(c3)OCO4)SC2)c(O)c1,195 cells
12,O=C(Nc1ccc(-c2nc3ncccc3o2)cc1)c1ccc(Br)o1,701 cells
13,COc1ccc(C)cc1NC(=O)Nc1ccc(C(=O)N2CCCC2)cc1,848 cells
14,Cc1nn(Cc2ccc(F)cc2)c(C)c1NC(=O)C1c2ccccc2Oc2ccccc21,622 cells
15,COc1ccc(NC(=O)Nc2cccc3ccccc23)c(OC)c1,863 cells
16,CCC(C)(C)NC(=O)C(c1ccc(C)cc1)N(CC1CCCO1)C(=O)CCC(=O)Nc1ccccn1 (configuration not stated),773 cells
17,COc1ccc(-c2csc(NC(=O)c3ccc(OCC(=O)N4CCOCC4)c(OC)c3)n2)cc1,575 cells
18,CCC(C(=O)NCc1cccc(C)c1)n1nc(C)c2c(C)n(-c3ccccc3)nc2c1=O (configuration not stated),687 cells
19,Cc1cccc(NC(=O)CSc2nc3ccccc3nc2N2CCCC2)c1C,774 cells
20,COC(=O)c1ccc(COc2ccc(F)cc2)o1,813 cells
21,CCOc1ccc2ccccc2c1/C=N/NC(=O)CNC(=O)C(c1ccccc1)c1ccccc1,690 cells

row,Structure (SMILES),cell count
1,COc1cc(/C=C\C(=O)OCn2nnc3ccccc3c2=O)cc(OC)c1OC,705 cells
2,Cn1nc([N+](=O)[O-])nc1Sc1nnc(-c2ccccc2)o1,111 cells
3,CCOC(=O)c1cc(NC(=O)N(C)C2CCCCC2)c(C)nc1C,766 cells
4,COc1ccc(NC(=O)Cc2c(C)n(C(=O)c3ccc(Cl)cc3)c3ccc(OC)cc23)cc1,581 cells
5,CCCC(=O)Nc1c2c(nc3ccccc13)N(c1ccccc1)CC2,699 cells
6,COc1ccc(CCNC(=O)CN2C(=O)c3cccc4cccc(c34)C2=O)cc1OC,649 cells
7,O=C1Nc2ccc(Cl)cc2C12Nc1ccccc1-c1nnc(SCc3ccccc3F)nc1O2 (configuration not stated),276 cells
8,CCCCCC(=O)N=Nc1c(O)[nH]c2ccc([N+](=O)[O-])cc12,233 cells
9,CCCC(=NCCc1c(C)[nH]c2ccccc12)C1=C(O)CC(c2ccccc2)CC1=O (configuration not stated),237 cells
10,COc1ccc(OC)c(/C=C/C(=O)N(C)CC(=O)Nc2cc(C)ccc2C)c1,741 cells
11,O=C(Nc1ccc([N+](=O)[O-])cn1)c1cc(-c2cccc(Cl)c2)nc2ccccc12,623 cells
12,Cc1cc(NC(=O)c2cccc3ccccc23)cc(C)c1OCC(=O)N1CCOCC1,817 cells
13,COc1cc(-c2noc(C)c2/C=C/c2cccc([N+](=O)[O-])c2)cc(OC)c1OC,289 cells
14,OCC[C@@H]1C[C@H](O)[C@@H](O)[C@]2(Cc3ccccc3O2)O1,792 cells
15,CNC(=O)c1[nH]cnc1C(=O)Nc1ccccc1C,79 cells
16,O=C1CC(/C=C/c2ccccc2)(C(=O)NC2CCCC2)N1c1ccc(S(=O)(=O)N2CCCC2)cc1 (configuration not stated),627 cells
17,CCS(=O)(=O)N1CCN(c2ccc([N+](=O)[O-])c(NCc3cccnc3)c2)CC1,762 cells
18,COc1ccc(-c2ccc(=O)n(Cc3cccc([N+](=O)[O-])c3)n2)cc1,790 cells
19,CC(C)(C)C(=O)/C=c1\[nH]c(=O)/c(=C\c2ccc(F)cc2)s1,726 cells
20,Cc1cccc(NC(=O)c2cccc(OC(=S)N3CCOCC3)c2)c1,756 cells
21,Cc1ccc(CNC(=O)c2ccc(N3CCC4(CC3)CC(c3ccccc3)=NO4)c(NC(=O)c3ccc(Br)cc3)c2)cc1,785 cells

row,Structure (SMILES),cell count
1,Cc1ccccc1Nc1nc(N)nc(CSc2nnnn2-c2ccccc2)n1,271 cells
2,CCOc1ccc(CCNC(=O)C(C)n2nc(C)n3c(cc4occc43)c2=O)cc1OCC (configuration not stated),707 cells
3,Cc1ccc(-c2[nH]c3ccccc3c2SCCNC(=O)c2ccc(S(=O)(=O)N3CCOCC3)cc2)cc1,723 cells
4,Cc1ccc(-n2nc3c(=O)n(CC(=O)NCCCc4ccccc4)nc(C)c3c2C)cc1,751 cells
5,COc1cc2c(cc1OC)CN(CC(=O)Nc1ccc(C)c(C)c1)CC2,829 cells
6,Cc1cc(C)c2nc(SCC(=O)N3CC(=O)Nc4ccccc43)c(C#N)cc2c1,301 cells
7,Nc1cc(Nc2ccccc2)c2nonc2c1[N+](=O)[O-],826 cells
8,COc1cc(SC)ccc1C(=O)OC(C)C(=O)Nc1ccc(NC(C)=O)cc1 (configuration not stated),835 cells
9,O=C(COc1ccccc1-c1ccccc1)N/N=C/c1ccc2ccccc2c1,37 cells
10,CCOc1ccccc1NC(=O)N1CCC(C(=O)c2ccc(F)cc2)CC1,754 cells
11,CCOc1ccc(-n2c(SCC(=O)Nc3ccc(CC)cc3)nc3n[nH]c(C)c3c2=N)cc1,751 cells
12,C=C1C(=O)C=C2CN(C(=O)c3ccccc3)[C@@](Cc3ccc(F)cc3)(C(=O)OC)[C@@H]12,247 cells
13,COc1ccc(NC(=O)CSc2nc3ccccc3nc2N2CCCC2)cc1Cl,748 cells
14,CCC1(c2ccccc2)NC(=O)N(CC(=O)N(C)Cc2c(F)cccc2Cl)C1=O (configuration not stated),717 cells
15,COc1ccc(-c2nc3c(c4nnc(SC(C)C(=O)Nc5ccc(C)cc5)n24)COC(C)(C)C3)cc1 (configuration not stated),655 cells
16,CN(C)/C=N/n1cnc2ccccc2c1=O,509 cells
17,COC(=O)c1cc(C)sc1NC(=O)C1CC(=O)NN1Cc1ccccc1 (configuration not stated),651 cells
18,CCN(CC)S(=O)(=O)c1ccc(S(=O)(=O)N(CC(=O)Nc2ccccc2)Cc2ccco2)cc1,738 cells
19,CCCOc1ccc(/C=N/Nc2ccccc2[N+](=O)[O-])c(O)c1,658 cells
20,CN(c1ccccc1)S(=O)(=O)c1cccc(NC(=O)CSc2nnc(N)s2)c1,292 cells

# Reference: PubChem BioAssay AID1656 (Sanford-Burnham Center for Chemical Genomics, 2009)
